According to publication PMC4336329 (PLoS ONE, 2015):
Screen size: about 310,000 compounds; about 2,200 (0.71%) showed an effect of 50% or more. Effects have a minus sign here. Some of the results follow.

target: human ether-à-go-go-related gene (hERG) potassium channel (human, UniProt Q12809); assay: primary screen, population patch clamp on CHO cells stably expressing hERG
Sequence (Q12809 whole entry, looked up): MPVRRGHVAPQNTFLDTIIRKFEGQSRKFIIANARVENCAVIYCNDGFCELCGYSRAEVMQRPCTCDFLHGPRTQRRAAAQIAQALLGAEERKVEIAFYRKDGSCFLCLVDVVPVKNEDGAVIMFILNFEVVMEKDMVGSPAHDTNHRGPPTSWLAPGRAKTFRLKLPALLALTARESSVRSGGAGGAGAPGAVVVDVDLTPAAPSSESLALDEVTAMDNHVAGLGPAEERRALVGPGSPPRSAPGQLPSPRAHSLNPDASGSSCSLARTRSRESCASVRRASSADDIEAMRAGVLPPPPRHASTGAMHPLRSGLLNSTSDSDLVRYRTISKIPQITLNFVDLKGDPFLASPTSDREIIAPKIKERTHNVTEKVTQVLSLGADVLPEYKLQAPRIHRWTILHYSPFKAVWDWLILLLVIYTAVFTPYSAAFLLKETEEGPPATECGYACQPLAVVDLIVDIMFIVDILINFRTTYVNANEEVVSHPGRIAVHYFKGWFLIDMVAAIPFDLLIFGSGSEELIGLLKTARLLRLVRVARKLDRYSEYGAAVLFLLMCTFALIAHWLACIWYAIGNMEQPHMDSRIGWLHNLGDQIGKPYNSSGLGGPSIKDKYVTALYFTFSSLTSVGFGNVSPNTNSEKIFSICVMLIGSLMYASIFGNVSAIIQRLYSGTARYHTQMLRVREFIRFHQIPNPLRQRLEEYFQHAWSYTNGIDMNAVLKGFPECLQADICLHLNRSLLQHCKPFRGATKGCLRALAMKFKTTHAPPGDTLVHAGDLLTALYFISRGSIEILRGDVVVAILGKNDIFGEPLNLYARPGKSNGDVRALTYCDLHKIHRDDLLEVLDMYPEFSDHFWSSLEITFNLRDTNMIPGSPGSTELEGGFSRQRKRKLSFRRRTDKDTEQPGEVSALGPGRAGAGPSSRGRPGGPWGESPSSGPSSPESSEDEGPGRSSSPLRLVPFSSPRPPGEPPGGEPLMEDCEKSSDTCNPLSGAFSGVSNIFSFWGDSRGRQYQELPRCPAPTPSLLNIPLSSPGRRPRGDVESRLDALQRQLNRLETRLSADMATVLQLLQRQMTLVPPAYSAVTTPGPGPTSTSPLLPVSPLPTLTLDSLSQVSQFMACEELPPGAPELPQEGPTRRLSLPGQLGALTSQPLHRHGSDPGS

First: CC(C)c1ccc(NC(=O)c2cccc(Br)c2)cc1
Second: CCC(=O)Oc1ccc(C(=O)Nc2ccc([N+](=O)[O-])cc2)cc1
The “hERG current change (%, negative = inhibition) at 1uM” value of the first is higher: 20.9% for the first, 11.6% for the second.

Compared with `Cc1cccc(C(=O)NCC(=O)OCC(=O)c2ccc(Cl)s2)c1`, `CCOC(=O)CNC(=O)c1ccc(SCC)cc1` is higher in “hERG current change (%, negative = inhibition) at 1uM” value: 6.05% for the first, 6.95% for the second.

Compared with `O=C(O)c1ccccc1CSc1nc2ccccc2s1`, `O=c1c2ccccc2nnn1CSc1nnc2sc3ccccc3n12` is lower in “hERG current change (%, negative = inhibition) at 1uM” value: 18.4% for the first, 6.4% for the second.

Going from `COc1ccc(CCNc2cc(N3CCN(C(=O)c4ccccc4F)CC3)ccc2[N+](=O)[O-])cc1OC` to `COc1ccc(N2CCN(C(=O)Cc3ccc(C)cc3)CC2)cc1`, the “hERG current change (%, negative = inhibition) at 1uM” value rises from 6.84% to 10.9%.

Going from `CCCN1C(=O)SC(CC(=O)Nc2ccccc2C)C1=O` (stereo not shown) to `CCCC(=O)Nc1c(O)c2ccccc2[nH]c1=O`, the “hERG current change (%, negative = inhibition) at 1uM” value falls from 13.8% to 10.6%.

Compared with `CC(C)(C)c1ccc(-c2c(C#N)c(N)nc3c2CCCC3)s1`, `CCOC(=O)c1sc2nc(N3CCOCC3)c3c(c2c1N)CCC3` is higher in “hERG current change (%, negative = inhibition) at 1uM” value: 8.26% for the first, 13% for the second.

Compared with `CC(=O)c1ccc(OCCCC(=O)NC2CCCc3ccccc32)cc1` (stereo not shown), `CC(=O)c1ccc(OCCCC(=O)NC2CCCCC2C)cc1` (stereo not shown) is higher in “hERG current change (%, negative = inhibition) at 1uM” value: 0.526% for the first, 5.85% for the second.

First: COc1cccc(-c2nn(-c3ccc(C)cc3)cc2C(=O)NCC(c2cccs2)N2CCOCC2)c1 (stereo not shown)
Second: COc1ccc(CNC(=O)C(=O)c2cn(CC(=O)N3CCCC3)c3ccccc23)cc1
The “hERG current change (%, negative = inhibition) at 1uM” value of the first is higher: 13.2% for the first, 4.73% for the second.

Going from `CN1CCCN(C(=O)c2ccc(Cl)s2)CC1` to `CN1CCN(S(=O)(=O)c2cnc(Cl)c(Br)c2)CC1`, the “hERG current change (%, negative = inhibition) at 1uM” value rises from -50.5% to 15.6%.

First: CCOc1ccccc1/C=N/NC(=O)CSc1n[nH]c(=O)[nH]c1=O
Second: COc1ccccc1-n1ccnc1SCC(=O)NCc1ccco1
The “hERG current change (%, negative = inhibition) at 1uM” value of the first is higher: 13.8% for the first, 6.19% for the second.

First: COc1ccc2nc(NC(=O)c3ccc(NC(=O)C4CCCO4)cc3)sc2c1 (stereo not shown)
Second: CCC(CC)C(=O)Nc1ccc(C(=O)Nc2cc(C)on2)cc1
The “hERG current change (%, negative = inhibition) at 1uM” value of the first is higher: 15.4% for the first, 6.94% for the second.

Going from `CCCN1C(=O)c2[nH]nc(-c3cc(Cl)c(C)cc3O)c2C1c1ccc(O)c(OC)c1` (stereo not shown) to `COc1ccc(Cl)cc1S(=O)(=O)NCc1nc2nc(C)cc(C)n2n1`, the “hERG current change (%, negative = inhibition) at 1uM” value rises from 3.99% to 14.8%.

Going from `COC(=O)c1c(C)[nH]c(C(=O)OCC(=O)NC(C)(C)C)c1C` to `COC(=O)CCc1c(C)[nH]c(C(=O)OCc2ccccc2)c1C`, the “hERG current change (%, negative = inhibition) at 1uM” value rises from 9.6% to 11%.

Compared with `CCOC(=O)C1(Cc2cccc(F)c2)CCN(Cc2cnn(CC)c2C)CC1`, `CCC(C)NC(=O)CCn1c(-c2ccccc2)cc(C(C)=O)c1C` (stereo not shown) is higher in “hERG current change (%, negative = inhibition) at 1uM” value: 3.09% for the first, 18.3% for the second.

Compared with `CNS(=O)(=O)c1ccc(OC)c(-c2nnc3c4ccccc4c(C)nn23)c1.Cl`, `COc1ccc(Cn2c(=O)sc3ccccc32)cc1OC` is lower in “hERG current change (%, negative = inhibition) at 1uM” value: 15.1% for the first, -10.6% for the second.

Going from `CC(=O)OCCc1c(C)nc2nc[nH]n2c1=O` to `Cc1ccnc2nc(C(=O)OCC(=O)c3c[nH]c4ccccc34)nn12`, the “hERG current change (%, negative = inhibition) at 1uM” value rises from 14.5% to 24.2%.

First: CN(C(=O)COc1cc(=O)n(C)c2ccccc12)c1ccc(Br)cc1
Second: CC(=O)N(C)c1ccc(NC(=O)Cc2cccs2)cc1
The “hERG current change (%, negative = inhibition) at 1uM” value of the first is lower: 5.1% for the first, 11.7% for the second.

First: CCOc1ccc(/C(CCC(=O)O)=N/NC(=S)NC(C)C)cc1
Second: Cc1ccc(OCCC(=O)OCC(=O)C(C)(C)C)cc1
The “hERG current change (%, negative = inhibition) at 1uM” value of the first is higher: 9% for the first, -5.69% for the second.

Compared with `CCOC(=O)/C(C#N)=C/c1c(N2CCN(c3ccccc3)CC2)nc2c(C)cccn2c1=O`, `O=[N+]([O-])c1ccc(N2CCN(S(=O)(=O)c3ccccc3[N+](=O)[O-])CC2)cc1N1CCc2ccccc2C1` is lower in “hERG current change (%, negative = inhibition) at 1uM” value: 10.8% for the first, 5.81% for the second.

Going from `CC(=O)N(Cc1nc2sc(C)c(C)c2c(=O)[nH]1)C1CCCC1` to `O=C(CCC1CCCCC1)Nc1c[nH]c(=O)[nH]c1=O`, the “hERG current change (%, negative = inhibition) at 1uM” value falls from 5.38% to 3.17%.

Compared with `Cc1ccccc1CN1CCCC(C(=O)N2CCCCC2)C1.O=C(O)C(=O)O` (stereo not shown), `Cc1ccc(C(=O)NC2CCCCC2)cc1S(=O)(=O)N1CCCC1` is lower in “hERG current change (%, negative = inhibition) at 1uM” value: 14.7% for the first, -5.72% for the second.

Going from `Cc1cc(C(=O)CSc2nn(-c3ccccc3)c(=S)s2)c(C)n1Cc1ccco1` to `Cc1ccc(-n2c(Cn3cnc4ccccc43)nnc2SCC(=O)O)cc1`, the “hERG current change (%, negative = inhibition) at 1uM” value falls from 10.2% to 6.25%.

Compared with `O=P(O)(c1ccc(Cl)cc1)c1ccc(Cl)cc1`, `O=C(Nc1ccc(F)cc1F)c1c(C(F)(F)F)ccnc1Oc1ccc(Cl)cc1` is higher in “hERG current change (%, negative = inhibition) at 1uM” value: 5.87% for the first, 12.9% for the second.

Compared with `Cc1occc1C(=O)NC1CCCCCC1`, `COc1ccccc1Nc1nnc(SCC(=O)NC2CCCC2)s1` is lower in “hERG current change (%, negative = inhibition) at 1uM” value: 14% for the first, 10% for the second.

Going from `COc1ccccc1N1CCN(/N=C/c2cccc(OC)c2OC)CC1` to `COc1ccccc1NC(=O)CCS(=O)(=O)c1ccccc1`, the “hERG current change (%, negative = inhibition) at 1uM” value rises from 5.31% to 11.5%.

First: CCn1c(SCC(=O)Nc2cc(C)on2)nnc1-c1c[nH]c2ccccc12
Second: Cc1cc(NC(=O)CSc2nc(C(C)C)nc3ccccc23)no1
The “hERG current change (%, negative = inhibition) at 1uM” value of the first is higher: 13.8% for the first, 1.71% for the second.

Going from `Clc1ccc2c(N3CCOCC3)ccnc2c1` to `O=C1C2C3c4ccccc4C(c4ccccc43)C2C(=O)N1CN1CCOCC1` (stereo not shown), the “hERG current change (%, negative = inhibition) at 1uM” value rises from 0.204% to 13.5%.

First: CCCCCCCN1C(Nc2ccccc2)=NC[C@@H]1CC(C)C
Second: CCOC(=O)C1CCN(S(=O)(=O)Cc2ccccc2)C1=O (stereo not shown)
The “hERG current change (%, negative = inhibition) at 1uM” value of the first is lower: -44.6% for the first, 9.67% for the second.

First: O=C(CN1CCN(CCC(=O)Nc2ccccc2F)CC1)Nc1ccc(F)cc1
Second: Cc1cc(S(=O)(=O)NCC(c2ccc(F)cc2)N2CCN(C)CC2)ccc1F (stereo not shown)
The “hERG current change (%, negative = inhibition) at 1uM” value of the first is lower: -78.3% for the first, -39.3% for the second.

Compared with `COc1ccc(CCNC(=O)c2cccc(NC3=NC4CS(=O)(=O)CC4S3)c2)c(OC)c1` (stereo not shown), `COc1ccc(OCC(=O)Nc2cccc(C(C)=O)c2)cc1` is lower in “hERG current change (%, negative = inhibition) at 1uM” value: -0.0522% for the first, -6.73% for the second.

First: O=C(NCCCN1CCOCC1)C1CCC(=O)N1C1CCCCC1 (stereo not shown)
Second: O=C(CC12CC3CC(CC(Br)(C3)C1)C2)NC1CCCC1
The “hERG current change (%, negative = inhibition) at 1uM” value of the first is lower: 3.9% for the first, 9.5% for the second.

First: Clc1ss/c(=N\c2ccccn2)c1Cl
Second: O=[N+]([O-])c1cc([N+](=O)[O-])c2cccnc2c1O
The “hERG current change (%, negative = inhibition) at 1uM” value of the first is lower: 10.4% for the first, 11.1% for the second.

Going from `CCN1C(=O)NC2C1N(S(C)(=O)=O)CCN2S(C)(=O)=O` (stereo not shown) to `CCn1cc(C(=O)NCc2ccco2)c(=O)c2cc(S(=O)(=O)N3CCCC3)ccc21`, the “hERG current change (%, negative = inhibition) at 1uM” value rises from 8.06% to 8.36%.

First: COCCNC(=O)C(c1ccc(C)cc1)N(CCOC)C(=O)CCC(=O)Nc1ccccn1 (stereo not shown)
Second: Cc1ccc(C(=O)NNc2ncnc3ccccc23)cc1
The “hERG current change (%, negative = inhibition) at 1uM” value of the first is lower: 14.5% for the first, 14.7% for the second.

Going from `NS(=O)(=O)c1ccc(NC(=S)NCC2CCCO2)cc1` (stereo not shown) to `Cc1ccc(O)c(CNc2ccc(S(=O)(=O)Nc3nccs3)cc2)c1`, the “hERG current change (%, negative = inhibition) at 1uM” value rises from 6.88% to 10.9%.

First: CCCc1nnc(SCC(=O)Nc2ccc3c(c2)OCCO3)n1CCOC
Second: COCCCNC(=S)N(CCCO)Cc1cc2cc3c(cc2[nH]c1=O)OCO3
The “hERG current change (%, negative = inhibition) at 1uM” value of the first is higher: 22.2% for the first, 13.5% for the second.

First: Cc1ccc(/C=C/C(=O)Nc2ccc([N+](=O)[O-])c(NC(=O)/C=C/c3ccc(C)o3)c2)o1
Second: Cc1cccnc1NC(=O)c1ccc(OCc2c(C)noc2C)cc1
The “hERG current change (%, negative = inhibition) at 1uM” value of the first is higher: 12.5% for the first, 0.733% for the second.

Going from `Cc1cccc(NCc2ccccc2)c1` to `Cc1[nH]c2ccccc2c1/C=N/NC(=S)NCc1ccccc1`, the “hERG current change (%, negative = inhibition) at 1uM” value rises from 7.24% to 8.46%.

Compared with `CCC(=O)O[C@]1(C(=O)CCl)[C@@H](C)C[C@H]2[C@@H]3CCC4=CC(=O)C=C[C@]4(C)[C@@]3(F)[C@@H](O)C[C@@]21C`, `CCOC(=O)c1cn2nc(-c3ccc(OCC)cc3)cc2nc1C1CCN(C(=O)OC(C)(C)C)CC1` is lower in “hERG current change (%, negative = inhibition) at 1uM” value: 18% for the first, 10.1% for the second.

Going from `O=C(c1sccc1-c1ccccc1)N1CCN(S(=O)(=O)c2ccccc2)CC1` to `CCn1c(-c2ccccc2)c(C(=O)CC#N)c2ccccc21`, the “hERG current change (%, negative = inhibition) at 1uM” value falls from 14.1% to 6.27%.

First: COc1ccc(N(C(=O)c2cnccn2)C(C(=O)NC2CCCCC2)c2ccc(O)cc2)cc1 (stereo not shown)
Second: O=C(NC1CCCC1)C(c1ccccn1)N(C(=O)c1csnn1)C1CC1 (stereo not shown)
The “hERG current change (%, negative = inhibition) at 1uM” value of the first is lower: 7.73% for the first, 16.6% for the second.

Going from `O=C(N=C1SC2CS(=O)(=O)CC2N1Cc1ccc(F)cc1)C1CCCO1` (stereo not shown) to `CC(N=Cc1c(O)c2ccccc2oc1=O)C(=O)O` (stereo not shown), the “hERG current change (%, negative = inhibition) at 1uM” value rises from -8.7% to 8.42%.

Going from `COc1ccc(C)cc1S(=O)(=O)N(CC(=O)NCc1ccc(Cl)cc1)Cc1ccccc1` to `COC(=O)c1ccc(COC(=O)c2ccc(CS(=O)(=O)c3ccc(C)cc3)cc2)cc1`, the “hERG current change (%, negative = inhibition) at 1uM” value rises from 13.1% to 14.7%.

Compared with `CNc1oc(-c2ccccc2)nc1S(=O)(=O)c1ccc(C)cc1`, `Cc1ccc(CNc2cnccn2)cc1` is lower in “hERG current change (%, negative = inhibition) at 1uM” value: 11.9% for the first, 3.96% for the second.

Compared with `Cc1c(C#N)c2ccccc2n1CC(=O)NCCc1c[nH]c2ccccc12`, `Cc1nn(Cc2ccccc2)c2sc(C(=O)NCc3cccnc3)cc12` is lower in “hERG current change (%, negative = inhibition) at 1uM” value: 9.69% for the first, 2.32% for the second.

In the case of `CCCn1c(C)cc(C(=O)COc2ccc(C)nc2[N+](=O)[O-])c1C`, the “hERG current change (%, negative = inhibition) at 1uM” value is reported as 5.04%.
